Results on 94 sequences are retold here after PMC10668032.

The list shows a part of the results. At the low end of the ranking the order means little.

For the experiment, the target named is SIX1 homeodomain (reference allele) (UniProt Q15475). The experiment can be described thus: universal protein binding microarray. The conditions noted are these: Universal all-10-mer PBM (8x60K, AMADID 030236), 300 nM GST-tagged protein, Alexa Fluor 488 anti-GST; buffer, salt, pH and temperature not stated; high values mean tight binding; most listed sequences are background and not binding sites; double strand, one strand shown.
With AATGCTAC, the binding signal stood at 0.0507 E-score. The result for AGCCCTGG reads -0.101 E-score; that for ATTTCTGG, -0.172 E-score. Consider AAGAAGCC, for which the binding signal was -0.0753 E-score. With CTGAGGTA, the binding signal amounted to 0.0822 E-score.

With CCTTCCTA, the binding signal is -0.153 E-score. The result for ATAGAGGA reads 0.153 E-score. The result for ATCTGCGA reads 0.175 E-score.

Take CACGGCGA: the binding signal was -0.0142 E-score. The result for CAGCGGGC reads -0.188 E-score.

As for TCGCAGCA, the binding signal is -0.0755 E-score. Consider AACTTTAA, for which the binding signal is -0.131 E-score. On to CCCATGAG, for which the binding signal was determined as 0.0671 E-score. The result for CGAGGGGA reads 0.164 E-score; that for TCTAGACA, 0.065 E-score; that for ACCCGGAG, 0.194 E-score. As for CTTACCAA, the binding signal came out at 0.0209 E-score. Regarding AACGGCAG, the binding signal was -0.136 E-score. Regarding CAAGACTC, the binding signal was -0.147 E-score.

On to GTTACAAC, for which the binding signal was -0.111 E-score. In the case of AGTTGCAA, the binding signal is -0.156 E-score. Regarding CACTAGAG, the binding signal is -0.146 E-score.

On to CATAACGG, for which the binding signal is -0.127 E-score. The result for TCAGTAGA reads 0.0265 E-score. The result for CCTCTATA reads 0.0311 E-score. Consider GGACAATA, for which the binding signal was determined as 0.0395 E-score.

As for GTCTTGTA, the binding signal was -0.0499 E-score.

For the sequence GATCTACA, the binding signal is 0.194 E-score. Turning to CCAGAAAG, the binding signal was -0.127 E-score.

In the case of GCCCTCGC, the binding signal is -0.0482 E-score. The result for CGGAGTTA reads 0.00598 E-score; that for AGCCAAGG, -0.117 E-score; that for GTCAGCAA, -0.254 E-score. For CACGAAAA, the binding signal was -0.186 E-score.

Consider TGGATACA, for which the binding signal was found to be 0.351 E-score. Turning to CTGGACGA, the binding signal is -0.0365 E-score. The result for CTGGAAAA reads -0.1 E-score. The result for CCCCTGCC reads -0.115 E-score; that for ACAGAGCT, -0.156 E-score; that for GCGTCAGA, -0.075 E-score.

Turning to ATAGGACC, the binding signal is -0.0117 E-score. The result for CAGTAACA reads -0.186 E-score. The result for AAATAACG reads -0.0842 E-score; that for ACACAACA, -0.046 E-score; that for ACAAACGA, 0.012 E-score.

For AGCGGTCG, the binding signal is -0.171 E-score. The result for CAGAAAAG reads -0.141 E-score. In the case of GAACCAAA, the binding signal is -0.148 E-score. The result for GATGAAAC reads 0.0818 E-score; that for TCTAGCCA, 0.0612 E-score. The result for CTGGAACA reads -0.056 E-score. The result for GATTAGCA reads -0.214 E-score; that for AGCAGGGA, -0.169 E-score. Regarding CGTTAGTA, the binding signal is 0.194 E-score.

On to ATGGCTAC, for which the binding signal is -0.165 E-score. Turning to AGTAACAT, the binding signal is -0.122 E-score. In the case of CAGTCAAA, the binding signal was -0.148 E-score. As for AAACACAT, the binding signal is -0.117 E-score. The result for AGATGGCA reads -0.00818 E-score; that for CGCAATTC, -0.114 E-score.

Consider CACTAGTA, for which the binding signal worked out at 0.078 E-score. On to ACATTAGC, for which the binding signal is -0.144 E-score. For AATAACTG, the binding signal was -0.103 E-score. As to AATGAGGA, the binding signal is -0.176 E-score. The result for ACTGGCCT reads 0.139 E-score. CCTGCTTA: the binding signal was 0.0271 E-score. Regarding ATAGAGCA, the binding signal was -0.0939 E-score. Turning to CTAAGCGC, the binding signal was -0.0919 E-score.

With GACGGCCA, the binding signal is -0.109 E-score.

In the case of ATCAGCAT, the binding signal was 0.208 E-score. On to CAGTGCCA, for which the binding signal is -0.0607 E-score. The result for CACGGGTA reads 0.238 E-score; that for AAACCTTG, 0.00133 E-score. The result for AGCTCACA reads 0.101 E-score; that for AGAGAAAA, -0.215 E-score; that for CTAGCCGA, 0.146 E-score. The result for CCTGGAGA reads -0.11 E-score; that for TCATTACA, 0.0188 E-score. For the sequence GAAGAGTA, the binding signal was found to be 0.0559 E-score. For the sequence ATGGTGAC, the binding signal was -0.09 E-score. Consider TAGCTCCA, for which the binding signal was -0.0487 E-score. The result for AGATCGGG reads 0.294 E-score; that for ACTCGACC, -0.0247 E-score. The result for CGGCGCTA reads -0.176 E-score; that for GGGGAGTA, 0.251 E-score. Regarding CCCGCAGA, the binding signal is -0.121 E-score. For the sequence CAGAATGA, the binding signal is -0.0849 E-score. The result for AAAGGTAA reads -0.197 E-score; that for CCGACCGG, 0.133 E-score; that for GCGTAACC, -0.224 E-score.

Turning to CTCTAAAA, the binding signal was -0.163 E-score. The result for CGCAGTAC reads -0.109 E-score; that for GCCGGGCC, -0.166 E-score. The result for ATGAGCAG reads -0.0456 E-score.
